Results published in PubChem BioAssay AID248 (DTP/NCI, 2004).
Toxic doses and inconclusive results are not listed. Certain results were filed several times, with different values. The list is limited to them. There may be further records. Values that stand side by side do not match, cause unknown; dose, time, organism, isomer or construct need not be as stated for each record.

Test system: L1210 leukemia ip in BDF1 mice, survival T/C
Test: NCI In Vivo Anticancer Drug Screen. Data for tumor model L1210 Leukemia (intraperitoneal) in B6D2F1 (BDF1) mice
Details: endpoint: mean survival time, higher = longer survival

SMILES: Cc1cccc(NC(=O)N(CCCl)N=O)c1
- T/C (dose: 9.0 mg/kg/injection, schedule: Q01DX009 (ip), vehicle: carboxymethylcellulose (CMC)): 124 % of control and 180 % of control

SMILES: O=C1C(N2CCOCC2)=C(c2ccccc2)c2ccccc21
- T/C (dose: 25.0 mg/kg/injection, schedule: Q01DX009 (ip), vehicle: other): 90 % of control, 101 % of control, 459 % of control

SMILES: O=CC(NC(=O)N(CCCl)N=O)C(O)C(O)C(O)CO (centres undefined)
- T/C (dose: 45.0 mg/kg/injection, schedule: Q01DX001 (ip), vehicle: saline): 120 % of control and 194 % of control

SMILES: O=C1CCC(=O)N1CCc1csc2ccccc12
- T/C (dose: 400.0 mg/kg/injection, schedule: Q01DX001 (ip), vehicle: carboxymethylcellulose (CMC)): 92 % of control, 95 % of control, 158 % of control
